Data from the supplement of paper PMC12645437, “Orthogonal IMiD-Degron Pairs Induce Selective Protein Degradation in Cells” (ACS Chemical Biology, 2025).
The other results are listed elsewhere or left out.

target: no compound (DMSO); assay: log2 fold change of degron read counts, EGFP-low vs EGFP+ sorted cells; higher = lower degron-EGFP level without compound (poor expression or instability); conditions: compound: DMSO control; 18 h
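Further: jurkat cells carrying a lentiviral library of mutant zinc finger degrons fused to EGFP plus mCherry, mCherry+ cells FACS sorted, degron abundance counted by next-generation sequencing.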

Row | Sequence | log2 fold change of degron read counts
1 | LRCEICGFWCTQKGNLLRHIKL | 1.25
2 | LCCEICGFCCTQKGNLLRHIKL | -0.0228
3 | FTCPICGHRFTQKGNLLRHIKL | -0.309
4 | FNCPICGRQFTQKGNLLRHIKL | -0.35
5 | FYCEICGHRFTQKGNLLRHIKL | -1.36
6 | FKCNQCGHWFTQKGNLLRHIKL | 0.589
7 | FHCPICGHMFTQKGNLLRHIKL | 0.0547
8 | FSCDVCGAHFTQKGNLLRHIKL | -1.68
9 | FFCNICGARFTQKGNLLRHIKL | 0.0162
10 | FWCEICGRMFTQKGNLLRHIKL | 0.874
11 | FHCPICGASFTQKGNLLRHIKL | -0.646
12 | FHCEICGRVFTQKGNLLRHIKL | -0.818
13 | FVCPICGHHFTQKGNLLRHIKL | 0.0468
14 | FVCNQCGRKFTQKGNLLRHIKL | -0.823
15 | FCCEQCGAFFTQKGNLLRHIKL | -1.34
16 | FVCNICGADFTQKGNLLRHIKL | -1.91
17 | FGCPQCGARFTQKGNLLRHIKL | -0.536
18 | FHCEICGHWFTQKGNLLRHIKL | -0.272
19 | FHCPVCGALFTQKGNLLRHIKL | 0.0112
20 | FRCPICGHPFTQKGNLLRHIKL | 0.599
21 | FKCPICGHRFTQKGNLLRHIKL | -1.25
22 | FTCNICGAEFTQKGNLLRHIKL | -1.51
23 | FHCEQCGAVFTQKGNLLRHIKL | -1.15
24 | FCCPICGAPFTQKGNLLRHIKL | 1.12
25 | LECEICGFWCTQKGNLLRHIKL | 0.912

Row | Sequence | log2 fold change of degron read counts
26 | FMCEQCGACFTQKGNLLRHIKL | -1.3
27 | FHCDICGAKFTQKGNLLRHIKL | -2.39
28 | FQCPQCGAPFTQKGNLLRHIKL | -1.09
29 | FKCPQCGAMFTQKGNLLRHIKL | -0.595
30 | FSCEICGHEFTQKGNLLRHIKL | -2.5
31 | FNCPICGRIFTQKGNLLRHIKL | 0.0726
32 | LMCEICGFLCTQKGNLLRHIKL | 0.451
33 | FICSVCGHCFTQKGNLLRHIKL | 0.275
34 | FVCNVCGAQFTQKGNLLRHIKL | -0.595
35 | FHCDICGARFTQKGNLLRHIKL | -0.909
36 | FSCDVCGALFTQKGNLLRHIKL | -0.822
37 | FKCEICGAIFTQKGNLLRHIKL | -1.63
38 | FACPVCGATFTQKGNLLRHIKL | 0.0436
39 | FKCNQCGHCFTQKGNLLRHIKL | -0.131
40 | FHCPVCGACFTQKGNLLRHIKL | -0.269
41 | FVCPVCGAVFTQKGNLLRHIKL | -0.431
42 | LTCPICGFTCTQKGNLLRHIKL | 0.0728
43 | FACDICGASFTQKGNLLRHIKL | -0.932
44 | FICEICGHWFTQKGNLLRHIKL | -1.53
45 | FQCPICGRIFTQKGNLLRHIKL | 0.443
46 | FQCEICGHWFTQKGNLLRHIKL | -0.926
47 | LGCEICGFWCTQKGNLLRHIKL | 1.63
48 | FYCPQCGAVFTQKGNLLRHIKL | 0.638
49 | FMCNICGAWFTQKGNLLRHIKL | 0.444
50 | FACDICGAVFTQKGNLLRHIKL | -1.82
